Experimental data from PubChem BioAssay AID1865 (National Center for Advancing Translational Sciences (NCATS), 2009).
Out of some 280,000 compounds screened, about 540 (0.19%) were called active. Inconclusive means that the source gave no clear call. Such entries were picked first, then a sample of the others. Calls follow the shape of the dose curve; as a rule, active = well fitted activation curve with a large enough effect; inconclusive = small, poorly fitted or top-dose-only effect; inactive = flat fitted curve, though single readings scatter. Potencies of inconclusive entries are doubtful fits and often do not repeat.

test: Quantitative High-Throughput Screen for Regulators of Epigenetic Control; conditions: murine LDR cells, GFP reporter derepression, 30 h; GFP activation: at 53.9 µM (top of the series); also: nearly all actives have a fitted effect of over 60% in size; as to GFP activation: % of control where 0% means no effect
Summary of the method: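 GFP-positive cell count by laser-scanning cytometry (objects 20–120 um) after 30 h, 37 C compound exposure of murine LDR cells; reporter is CMV-GFP integrated at a silenced locus, inducible by HDAC or DNMT inhibitors.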
Potency is read from the fitted curve at half-maximal effect; tags tell the direction and shape of the fitted curve.

For O=c1c2c3c(sc2ncn1/N=C/c1ccc([N+](=O)[O-])o1)CCCC3, which Potency is on record?
Its Potency is inconclusive: 5.62 µM [activator, single point].

With COCCCn1c(SCC(=O)O)nc2cc(OC)c(OC)cc2c1=N as the compound, how does the Potency read?
The Potency was inconclusive: 6.31 µM [activator, single point].

For COc1ccc(-c2cc(C)no2)cc1S(=O)(=O)NCc1ccco1, which Potency is on record?
Its Potency is inconclusive: 35.5 µM [activator, single point].

For Cc1cccc(C)c1NC(=S)N/N=C/c1ccc(C(=O)O)cc1, which “GFP activation” value is on record?
Its value is inactive: -0.99%.

With N#CC(c1ccccc1O)N1N=C(c2ccccc2)CC1c1ccccc1 (configuration not stated) as the compound, how does the “GFP activation” value read?
Its value is inactive: -0.947%.

For COc1ccc(C(=O)C(CN2CCOCC2)c2ccccc2)cc1F (configuration not stated), which Potency is on record?
The Potency was inconclusive: 6.31 µM [activator, single point].

For Cc1ccc(C(=O)C(c2ccccc2)N2Cc3ccccc3C2=N)cc1 (configuration not stated), which Potency is on record?
Its Potency is inconclusive: 31.6 µM [activator, single point].

For O=C(Nc1cccc(Cl)c1)c1ccc(NCC2CCCO2)c([N+](=O)[O-])c1 (configuration not stated), which Potency is on record?
Its Potency is inconclusive: 31.6 µM [activator, single point].

For COc1ccc(C2CC(c3c(-c4ccccc4)c4cc(Cl)ccc4[nH]c3=O)=NN2S(C)(=O)=O)cc1 (configuration not stated), which Potency is on record?
The Potency was inconclusive: 25.1 µM [activator, single point].

Which Potency does the source give for CCNC(=S)Nc1nc2c(cc1C(=O)OCC)CCCC2 here?
The Potency was inconclusive: 6.31 µM [activator, single point].

Which “GFP activation” value does the source give for COc1cc(Cl)c(C)cc1NC(=S)NN here?
Its value is inactive: -1.43%.

Which Potency does the source give for Cc1cccc(CSc2nc(-c3cccc(C)c3)nc3c2Cc2c(CO)cnc(C)c2O3)c1 here?
Its Potency is inconclusive: 6.31 µM [activator, single point].

Which Potency does the source give for c1ccc(CN(CCN(Cc2ccccn2)Cc2ccccn2)Cc2ccccn2)nc1 here?
Its Potency is inconclusive: 5.62 µM [activator, single point].

With CCOC(=O)/C(=C\Nc1ccccc1C(F)(F)F)Sc1ncc(C(F)(F)F)cc1Cl as the compound, how does the “GFP activation” value read?
The value was inactive: -6.02%.

Which “GFP activation” value does the source give for CCOc1ccc(S(=O)(=O)NCc2ccc3c(c2)CCN3C(=O)c2ccc(C)cc2)cc1 here?
Its value is inactive: -4.54%.

Which Potency does the source give for O=C(NN1S(=O)(=O)c2ccccc2S1(=O)=O)c1ccc(Br)cc1 here?
Its Potency is inconclusive: 6.31 µM [activator, partial curve].

For Cc1ccc(NC(=O)Cn2c(=O)n(-c3ccccc3)c(=O)c3ccc(C(=O)NCc4ccc5c(c4)OCO5)cc32)cc1, which Potency is on record?
The Potency was inconclusive: 10 µM [activator, partial curve].

With CCOC(=O)CSc1ncnc2c1sc1nc(N3CCOCC3)c3c(c12)CCCC3 as the compound, how does the Potency read?
Its Potency is inconclusive: 6.31 µM [activator, partial curve].

With O=C(OCCN1C(=O)c2cccc3c(N4CCOCC4)ccc(c23)C1=O)c1ccccc1Cl as the compound, how does the Potency read?
Its Potency is inconclusive: 31.6 µM [activator, single point].

With COc1ccc(C(C[N+](=O)[O-])c2c(-c3ccccc3)cc3ccccn23)c(OC)c1 (configuration not stated) as the compound, how does the Potency read?
Its Potency is inconclusive: 14.1 µM [activator, single point].

With CCOc1ccccc1NC(=O)Cn1c(=O)n(-c2ccc(C)c(C)c2)c(=O)c2oc3ccccc3c21 as the compound, how does the Potency read?
Its Potency is inconclusive: 15.8 µM [activator, single point].

Which Potency does the source give for N#CC1=C(N)C(C#N)(C#N)[C@H](c2c(F)cccc2F)[C@H]2CC3(CC=C12)OCCO3 here?
The Potency was inconclusive: 12.6 µM [activator, single point].

Which “GFP activation” value does the source give for CN(C)c1nc(NCc2ccccc2)nc(N/N=C/c2cccc(Br)c2)n1 here?
Its value is inactive: 4.15%.

Which Potency does the source give for C=CCn1c(O)c(N=Nc2nc3ccccc3c(=O)n2-c2ccccc2)c2ccccc21 here?
The Potency was inconclusive: 28.2 µM [activator, single point].

Which Potency does the source give for Nc1c(C(=O)C2CC2)sc2nc(-c3cccs3)cc(C(F)(F)F)c12 here?
Its Potency is active: 3.55 µM.

For COc1ccc(NC(=O)Cn2c(=O)n(CCCCCC(=O)NCc3ccc4c(c3)OCO4)c(=O)c3sccc32)cc1Cl, which Potency is on record?
The Potency was inconclusive: 35.5 µM [activator, single point].

With CCCS(=O)(=O)c1nc(S(=O)(=O)c2ccc(C)cc2)c(NCCCOC(C)C)s1 as the compound, how does the Potency read?
Its Potency is inconclusive: 11.2 µM [activator, partial curve].

With Cc1ccc(-n2nc(CO)c(C(=O)NCCC(C)C)n2)cc1C as the compound, how does the Potency read?
The Potency was inconclusive: 6.31 µM [activator, single point].

Which “GFP activation” value does the source give for CCc1cccc(NC(=O)CSc2nnc(-c3cc4occc4n3C)n2-c2ccccc2C)c1 here?
Its value is inactive: -1.23%.

Which “GFP activation” value does the source give for Cc1cc(C=C2C(=O)c3ccccc3C2=O)c(C)n1-c1ccc(C(=O)O)cc1 here?
The value was inactive: -1.23%.

Which Potency does the source give for COc1cccc(/C=C2\C(=O)C(=O)c3ccccc32)c1 here?
The Potency was inconclusive: 31.6 µM [activator, single point].

For CC[n+]1c(C)sc2c3ccsc3ccc21, which “GFP activation” value is on record?
Its value is inactive: -0.435%.

For CN1C(=O)/C(=N\OC(=O)c2cccc3ccccc23)c2ccccc21, which Potency is on record?
Its Potency is inconclusive: 28.2 µM [activator, single point].

For CCOc1nc(-c2ccccc2)ccc1-c1noc(-c2ccc(C)cc2)n1, which Potency is on record?
Its Potency is inconclusive: 31.6 µM [activator, single point].

With CCOc1ccc(NC(=O)CC2C(=O)N(c3ccccc3)C(=O)N2CCc2sccc2C)cc1 (configuration not stated) as the compound, how does the “GFP activation” value read?
The value was inactive: -4.71%.

With CC(C)NC(=O)NC(=O)CN1C(=O)NC(Cc2c[nH]c3ccccc23)C1=O (configuration not stated) as the compound, how does the Potency read?
The Potency was inconclusive: 5.62 µM [activator, single point].

For N#CC1=C(N)C(C#N)(C#N)C(c2cccnc2)C2CN(C(=O)OCc3ccccc3)CC=C12 (configuration not stated), which Potency is on record?
The Potency was inconclusive: 35.5 µM [activator, single point].

For COc1ccc(NC(=S)NNc2ccc([N+](=O)[O-])cc2S(=O)(=O)Nc2ccc(C)cc2C)cc1, which “GFP activation” value is on record?
The value was inactive: 1.49%.

With COc1ccc(CC(=S)N2CCOCC2)cc1 as the compound, how does the “GFP activation” value read?
The value was inactive: -1.18%.

With CC(=O)C1=C(O)C(=O)N(CCCO)C1c1ccccc1 (configuration not stated) as the compound, how does the “GFP activation” value read?
Its value is inactive: -5.37%.

With COc1cc2nc(SCC(=O)Nc3ccccc3C)n3nc(CCn4c(C)nc5ccccc54)nc3c2cc1OC as the compound, how does the Potency read?
Its Potency is inconclusive: 35.5 µM [activator, single point].

With COc1ccc(N2CCN(C(=O)CSc3nnc(C)c(=O)[nH]3)CC2)cc1 as the compound, how does the Potency read?
Its Potency is inconclusive: 5.62 µM [activator, single point].

Which Potency does the source give for C/C(=N\NC(=S)NCc1ccccc1)c1cccs1 here?
Its Potency is inconclusive: 35.5 µM [activator, single point].

With O=C(c1ccc(Cl)cc1)N(c1ccccn1)C1CCCCC1 as the compound, how does the “GFP activation” value read?
Its value is inactive: 2.14%.

For CCCOC(=O)/C(=C\C=C\c1ccco1)NC(=O)c1ccccc1, which Potency is on record?
The Potency was inconclusive: 31.6 µM [activator, single point].

For Cc1ccc(OCC(=O)N/N=C/C=C/c2ccco2)cc1C, which Potency is on record?
Its Potency is inconclusive: 31.6 µM [activator, single point].

With O=C(CSc1nc2c([nH]c3ccccc32)c(=O)n1-c1ccc(F)cc1)NC1CCCCC1 as the compound, how does the Potency read?
The Potency was inconclusive: 15.8 µM [activator, single point].

With CC1CCCC(NC(=S)NC(=O)c2ccccc2Br)C1C (configuration not stated) as the compound, how does the “GFP activation” value read?
The value was inactive: 0%.

Which Potency does the source give for c1ccc(-c2cnn3c(-c4ccccc4)c(-c4ccccc4)nc3n2)cc1 here?
The Potency was active: 2.82 µM.

With NNC(=S)NC1CC2CC1C1C=CCC21 (configuration not stated) as the compound, how does the Potency read?
The Potency was inconclusive: 35.5 µM [activator, single point].

For COc1ccc(NC(=O)CSc2nc(-c3cccs3)cc(C(F)(F)F)c2C#N)cc1, which Potency is on record?
Its Potency is inconclusive: 35.5 µM [activator, single point].

Which “GFP activation” value does the source give for Nc1nc(SCC(=O)Nc2cccc(Oc3ccccc3)c2)n[nH]1 here?
The value was inactive: -1.28%.

Which Potency does the source give for Cc1c(Cl)cccc1N1C(N)=C(C#N)C(c2cc(CN3CCOCC3)cs2)C2=C1CCCC2=O (configuration not stated) here?
The Potency was inconclusive: 31.6 µM [activator, single point].

For COc1ccc2cc(C#N)c(SCC(=O)NNC(=O)Cc3ccccc3)nc2c1, which Potency is on record?
Its Potency is inconclusive: 35.5 µM [activator, single point].

Which “GFP activation” value does the source give for COc1cc(NC(=O)C2CCN(S(=O)(=O)c3ccc4c(c3)oc(=O)n4C)CC2)cc(OC)c1 here?
The value was inactive: -4.43%.

With COC(=O)c1ccc2c(c1)N(CC(=O)Nc1cccc(Cl)c1C)C(=O)c1ccccc1S2 as the compound, how does the Potency read?
Its Potency is inconclusive: 31.6 µM [activator, single point].

With COc1ccc(-n2c(=O)c3ccccc3n(CC(=O)OCc3ccccc3)c2=O)cc1OC as the compound, how does the Potency read?
The Potency was inconclusive: 35.5 µM [activator, single point].

For Cc1ccc(Cn2ccn(CC(=O)Nc3c(C)cc(C)cc3C)c(=O)c2=O)cc1, which Potency is on record?
Its Potency is inconclusive: 14.1 µM [activator, single point].

With CCOC(=O)c1cc2c(=O)n3ccccc3nc2n(CCOC)c1=NC(=O)C(C)(C)Oc1ccc(Cl)cc1 as the compound, how does the Potency read?
The Potency was inconclusive: 35.5 µM [activator, single point].

Which “GFP activation” value does the source give for CC(C)OC(=O)C1=C2SCC(=O)N2C(N)=C(C#N)C1 here?
Its value is inactive: 0%.

With Cc1cccc(CNc2ccc(C(CC(N)=O)NC(=O)Cc3cccc4ccccc34)cc2[N+](=O)[O-])c1 (configuration not stated) as the compound, how does the Potency read?
The Potency was inconclusive: 35.5 µM [activator, single point].

With Cc1csc2ncnc(NNC(=O)c3ccc(Cl)cc3)c12 as the compound, how does the Potency read?
The Potency was active: 35.5 µM.

Which Potency does the source give for Cc1cc(C)c(Cn2c3ccccc3c3cnn(CC(=O)NCc4ccccn4)c(=O)c32)c(C)c1 here?
Its Potency is inconclusive: 35.5 µM [activator, single point].

For COc1ccc(-c2c(C(C)=O)c(C)n(C)c2C)cc1, which Potency is on record?
Its Potency is inconclusive: 17.8 µM [activator, single point].

With O=C(/C=C/c1ccc2ccccc2n1)c1cc(Cl)ccc1O as the compound, how does the Potency read?
Its Potency is inconclusive: 31.6 µM [activator, single point].

For O=C(N/N=C/c1ccc(N2CCOCC2)o1)c1cccc(C(F)(F)F)c1, which Potency is on record?
The Potency was inconclusive: 28.2 µM [activator, single point].

Which Potency does the source give for Oc1ccc(Br)cc1C=Nc1ccc2c3c(cccc13)CC2 here?
Its Potency is active: 3.55 µM.
